In PubChem BioAssay (Tox21):
Several values for one entry are separate records, joined by “and”; a condition that tells them apart may be missing. Equal entries are not always repeated. The shares of active, inactive and inconclusive entries below differ from those in the screen. A potency beside an inconclusive call is a rough fit, not a confirmed value. A structure can be active in one record and inactive in another. Activity calls are given as the source filed them. Unless noted, the call rests on the fitted dose curve; in most records, active means well fitted curve in the direction sought with a large enough effect in the repeat runs; inconclusive means weak or mixed curves; inactive means no such curve, though single readings can be large; an effect the other way counts as inactive or inconclusive.

Assays:
[1] = target: Peroxisome proliferator-activated receptor gamma (Homo sapiens) (UniProt P37231); experiment: qHTS assay to identify small molecule antagonists of the peroxisome proliferator-activated receptor gamma (PPARg) signaling pathway (AID 743191; calls by dose curve; further: nearly all actives have a fitted effect of over 30% in size); conditions: HEK293H PPARg-UAS-bla, beta-lactamase ratio, antagonist, 17 h; ratio activity, negative = inhibition: at 62.6 µM (top of the series) unless noted
Chain of UniProt P37231 (P37231 whole entry, looked up): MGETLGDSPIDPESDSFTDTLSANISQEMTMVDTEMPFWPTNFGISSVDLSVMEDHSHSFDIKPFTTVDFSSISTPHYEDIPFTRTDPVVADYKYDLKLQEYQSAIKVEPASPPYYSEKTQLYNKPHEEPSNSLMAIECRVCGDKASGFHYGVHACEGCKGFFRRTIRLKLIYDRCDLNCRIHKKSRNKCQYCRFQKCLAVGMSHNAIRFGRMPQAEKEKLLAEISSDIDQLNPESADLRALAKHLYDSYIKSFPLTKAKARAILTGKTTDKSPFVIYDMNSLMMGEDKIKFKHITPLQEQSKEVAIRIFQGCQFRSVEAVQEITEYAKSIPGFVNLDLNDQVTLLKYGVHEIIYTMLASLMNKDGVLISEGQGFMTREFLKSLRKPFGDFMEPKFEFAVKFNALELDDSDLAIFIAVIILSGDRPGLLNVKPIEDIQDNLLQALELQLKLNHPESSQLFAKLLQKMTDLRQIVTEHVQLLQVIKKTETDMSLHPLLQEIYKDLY
Method in brief: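 GeneBLAzer PPARg UAS-bla HEK293H cells, 5 h post-plating, exposed to compounds 17 h at 37C. LiveBLAzer B/G FRET substrate added for 1 h at room temperature; beta-lactamase reporter read by fluorescence intensity.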

[2] = qHTS assay to identify small molecule antagonists of the peroxisome proliferator-activated receptor gamma (PPARg) signaling pathway - cell viability counter screen (AID 743194); conditions: PPARg-bla HEK293H viability, CellTiter-Glo luminescence, 17 h; Potency: co-treated with 50 nM rosiglitazone unless noted; activity change, negative = cytotoxicity: at 62.6 µM (top of the series), co-treated with 50 nM rosiglitazone unless noted; further: nearly all actives have a fitted effect of over 55% in size
Method in brief: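 Cytotoxicity counter screen in PPARg-bla HEK293H cells, same wells as reporter assay. Compounds plus 50 nM rosiglitazone (final) for 17 h at 37 C, then viability read by CellTiter-Glo luminescence.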

[3] = qHTS assay for small molecule agonists of the antioxidant response element (ARE) signaling pathway (AID 743202; active means well fitted activation curve with a large enough effect in the signal ratio in the repeat runs, not every such curve was filed as active; inconclusive means weak or mixed curves, or effect the other way; inactive means no such curve, though single readings can be large or run the other way; the % refers to the signal ratio); conditions: HepG2 ARE-bla reporter, beta-lactamase FRET, 16 h; activation: at 73.3 µM (top of the series) unless noted
Method in brief: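 HepG2 ARE-bla reporter line, 2,000 cells/well; 5 h preincubation 37 C/5% CO2; compound (DMSO) 16 h 37 C; B/G FRET substrate 2 h RT; fluorescence intensity.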

[4] = qHTS assay for small molecule agonists of the antioxidant response element (ARE) signaling pathway - cell viability counter screen (AID 743203; calls by dose curve; further: nearly all actives have a fitted effect of over 55% in size)
Method in brief: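 Parallel cytotoxicity read-out for the ARE-bla screen: HepG2 reporter cells, 16 hrs with compounds, then CellTiter-Glo luminescence.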

[5] = qHTS assay for small molecule activators of the heat shock response signaling pathway - cell viability counter screen (AID 743209); conditions: HSE-bla HeLa viability, CellTiter-Glo luminescence, 5 h; activity change, negative = cytotoxicity: at 62.6 µM (top of the series) unless noted; further: nearly all actives have a fitted effect of over 50% in size
Method in brief: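 To flag cytotoxic compounds, HSE-bla HeLa cells plated at 1500 cells/well were dosed for 5 h at 37 C, followed by the reporter FRET read and then CellTiter-Glo, with luminescence recorded 30 min after reagent addition.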

[6] = qHTS assay for small molecule activators of the heat shock response signaling pathway (AID 743210; active means well fitted activation curve with a large enough effect in the signal ratio in the repeat runs, with a control signal flat, not every such curve was filed as active; inconclusive means weak or mixed curves; the % refers to the signal ratio); conditions: HeLa HSE-bla reporter, beta-lactamase ratio, 5 h; activation: at 62.6 µM (top of the series)
Method in brief: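 Beta-lactamase reporter read-out: FRET substrate fluorescence after 2.5 h at RT, following 5 h compound treatment at 37 C of HeLa cells carrying HSE-driven bla reporter; quantitative HTS format.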

[7] = qHTS assay to identify small molecule agonists of the peroxisome proliferator-activated receptor delta (PPARd) signaling pathway - cell viability counter screen (AID 743211); conditions: PPARd-bla HEK293H viability, CellTiter-Glo luminescence, 17 h; activity change, negative = cytotoxicity: at 62.6 µM (top of the series) unless noted; further: nearly all actives have a fitted effect of over 55% in size
Method in brief: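 qHTS cell viability: PPARd-bla HEK293H; 17 h cpd, 37C; CellTiter-Glo, luminescence at 30 min RT.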

[8] = target: Peroxisome proliferator-activated receptor delta (Homo sapiens) (UniProt Q03181); experiment: qHTS assay to identify small molecule agonists of the peroxisome proliferator-activated receptor delta (PPARd) signaling pathway (AID 743212; calls by dose curve; on activation: on the % scale 0 is the no-effect control and ±100 the full control effect); conditions: HEK293H PPARd-UAS-bla, beta-lactamase FRET ratio, 17 h; activation: at 62.6 µM (top of the series) unless noted
Chain of UniProt Q03181 (Q03181 whole entry, looked up): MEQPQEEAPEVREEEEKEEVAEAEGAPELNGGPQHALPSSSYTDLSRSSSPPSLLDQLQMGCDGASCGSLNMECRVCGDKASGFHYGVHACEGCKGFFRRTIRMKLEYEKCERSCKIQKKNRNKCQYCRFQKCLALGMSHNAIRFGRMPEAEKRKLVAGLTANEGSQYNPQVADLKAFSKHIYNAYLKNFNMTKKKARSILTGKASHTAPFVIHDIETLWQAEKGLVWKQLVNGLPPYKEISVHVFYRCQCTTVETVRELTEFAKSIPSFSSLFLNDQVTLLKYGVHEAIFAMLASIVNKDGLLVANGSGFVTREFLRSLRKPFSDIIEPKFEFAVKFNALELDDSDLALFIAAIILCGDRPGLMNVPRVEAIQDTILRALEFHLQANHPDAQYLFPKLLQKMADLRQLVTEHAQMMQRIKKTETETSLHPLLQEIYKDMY
Method in brief: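 Read-out: beta-lactamase FRET fluorescence after 2 h room-temperature incubation with LiveBLAzer B/G substrate. Cells were HEK293H carrying a UAS-bla reporter for PPARd, treated at 37 C with DMSO-dissolved compounds.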

[9] = qHTS assay to identify small molecule antagonists of the peroxisome proliferator-activated receptor delta (PPARd) signaling pathway - cell viability counter screen (AID 743213); conditions: PPARd-bla HEK293H viability, CellTiter-Glo luminescence, 17 h; viability change, negative = cytotoxic: at 62 µM (top of the series) unless noted; further: nearly all actives have a fitted effect of over 50% in size
Method in brief: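 PPARd-bla HEK293H cells (3000/well) got compound plus 300 nM L165041 agonist for 17 h at 37 C. Viability in the same wells came from CellTiter-Glo luminescence after 30 min at room temperature.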

[10] = target: Peroxisome proliferator-activated receptor delta (Homo sapiens) (UniProt Q03181); experiment: qHTS assay to identify small molecule antagonists of the peroxisome proliferator-activated receptor delta (PPARd) signaling pathway (AID 743215; active means well fitted inhibition curve with a large enough effect in the signal ratio in the repeat runs, not every such curve was filed as active; inconclusive means weak or mixed curves, or effect the other way; inactive means no such curve, though single readings can be large or run the other way; the % refers to the signal ratio;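 further: cells stimulated with agonist L165041 at 300 nM final during compound exposure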); conditions: HEK293H PPARd-UAS-bla, beta-lactamase FRET ratio, antagonist, 17 h; ratio activity, negative = inhibition: at 62 µM (top of the series) unless noted
Method in brief: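 Screen format: qHTS, antagonist mode. HEK293H PPARd-bla cells received compound and 300 nM L165041 (final), 17 h, 37 C. Beta-lactamase detected via FRET substrate fluorescence, 2 h, room temperature.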

[11] = target: Bile acid receptor (Homo sapiens) (UniProt Q96RI1); experiment: qHTS assay to identify small molecule antagonists of the farnesoid-X-receptor (FXR) signaling pathway (AID 743217; active means well fitted inhibition curve with a large enough effect in the signal ratio in the repeat runs, not every such curve was filed as active; inconclusive means weak or mixed curves, or effect the other way; inactive means no such curve, though single readings can be large or run the other way; the % refers to the signal ratio); conditions: HEK293T FXR-UAS-bla, beta-lactamase ratio, CDCA-stimulated, 16 h; activity change, negative = inhibition: at 62.6 µM (top of the series) unless noted
Chain of UniProt Q96RI1 (Q96RI1 whole entry, looked up): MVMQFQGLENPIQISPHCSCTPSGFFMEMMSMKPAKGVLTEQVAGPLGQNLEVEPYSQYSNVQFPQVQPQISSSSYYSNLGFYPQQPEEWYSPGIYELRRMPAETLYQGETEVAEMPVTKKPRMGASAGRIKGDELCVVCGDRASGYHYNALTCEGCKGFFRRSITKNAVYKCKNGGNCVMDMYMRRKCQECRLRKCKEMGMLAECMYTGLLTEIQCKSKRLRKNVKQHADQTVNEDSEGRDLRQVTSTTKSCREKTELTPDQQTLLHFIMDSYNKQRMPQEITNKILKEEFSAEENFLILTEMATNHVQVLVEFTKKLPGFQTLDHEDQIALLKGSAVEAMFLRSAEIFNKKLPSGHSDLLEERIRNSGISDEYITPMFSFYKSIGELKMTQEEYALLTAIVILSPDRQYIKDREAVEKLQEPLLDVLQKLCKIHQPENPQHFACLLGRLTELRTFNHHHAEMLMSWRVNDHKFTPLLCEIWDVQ
Method in brief: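 Quantitative HTS, beta-lactamase reporter format: FXR-UAS-bla HEK 293T cells co-treated 16 h at 37 °C with compounds and 50 uM final chenodeoxycholic acid, then read by B/G FRET fluorescence.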

[12] = qHTS assay to identify small molecule agonists of the farnesoid-X-receptor (FXR) signaling pathway - cell viability counter screen (AID 743218); conditions: FXR-bla HEK293T viability, CellTiter-Glo luminescence, 16 h; viability change, negative = cytotoxic: at 62.6 µM (top of the series) unless noted; further: nearly all actives have a fitted effect of over 45% in size
Method in brief: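 Same-well cytotoxicity check on FXR-UAS-bla HEK 293T cells: 5 h attachment, 16 h compound at 37 C, CellTiter-Glo luminescence read at room temperature after 30 min.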

[13] = qHTS assay to identify small molecule antagonists of the farnesoid-X-receptor (FXR) signaling pathway - cell viability counter screen (AID 743221; active means well fitted cell-killing curve with a large enough effect in the repeat runs, not every such curve was filed as active; inconclusive means weak or mixed curves, or effect the other way; inactive means no such curve, though single readings can be large or run the other way; further: nearly all actives have a fitted effect of over 50% in size); conditions: FXR-bla HEK293T viability, CellTiter-Glo luminescence, 16 h; activity change, negative = cytotoxicity: at 62.6 µM (top of the series) unless noted
Method in brief: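 After a 5 h settling period, FXR-bla HEK 293T cells receive compound and chenodeoxycholic acid (50 uM final) and incubate 16 h at 37 C; CellTiter-Glo luminescence, read after 30 min at room temperature, reports cell viability.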

[14] = target: Vitamin D3 receptor (Homo sapiens) (UniProt P11473); experiment: qHTS assay to identify small molecule agonists of the vitamin D receptor (VDR) signaling pathway (AID 743222; calls by dose curve; on activation: on the % scale 0 is the no-effect control and ±100 the full control effect); conditions: HEK293T VDR-UAS-bla, beta-lactamase FRET ratio, 16 h; activation: at 63.5 µM (top of the series) unless noted
Chain of UniProt P11473 (P11473 whole entry, looked up): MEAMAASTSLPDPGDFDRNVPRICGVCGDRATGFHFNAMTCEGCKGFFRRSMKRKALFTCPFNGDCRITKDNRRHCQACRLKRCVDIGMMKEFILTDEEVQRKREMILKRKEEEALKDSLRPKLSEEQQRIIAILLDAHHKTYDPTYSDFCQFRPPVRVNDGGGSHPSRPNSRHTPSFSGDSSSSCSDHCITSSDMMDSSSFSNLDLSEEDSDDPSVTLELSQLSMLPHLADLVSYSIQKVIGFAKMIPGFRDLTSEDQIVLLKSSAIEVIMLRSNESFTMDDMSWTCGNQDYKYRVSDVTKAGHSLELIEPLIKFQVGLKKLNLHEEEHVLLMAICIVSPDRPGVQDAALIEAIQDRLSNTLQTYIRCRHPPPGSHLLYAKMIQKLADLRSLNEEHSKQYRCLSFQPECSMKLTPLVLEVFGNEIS
Method in brief: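 Using LiveBLAzer B/G FRET detection, agonism was scored in VDR-bla cells exposed overnight (16 h, 37C) to DMSO-dissolved compounds; substrate incubation was 2 h at room temperature.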

[15] = target: Vitamin D3 receptor (Homo sapiens) (UniProt P11473); experiment: qHTS assay to identify small molecule antagonists of the vitamin D receptor (VDR) signaling pathway (AID 743223; active means well fitted inhibition curve with a large enough effect in the signal ratio in the repeat runs, not every such curve was filed as active; inconclusive means weak or mixed curves, or effect the other way; inactive means no such curve, though single readings can be large or run the other way; the % refers to the signal ratio; on activity change, negative = inhibition: on the % scale 0 is the no-effect control and ±100 the full control effect); conditions: VDR-UAS-bla HEK293T, beta-lactamase FRET ratio, 16 h
Method in brief: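 Reporter line VDR-bla; stimulus 1alpha,25-(OH)2 vitamin D3, 3 nM final; compound co-addition, 16 h 37C/5% CO2; LiveBLAzer B/G substrate 2 h RT; fluorescence intensity.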

[16] = qHTS assay to identify small molecule agonists of the vitamin D receptor (VDR) signaling pathway - cell viability counter screen (AID 743224); further: nearly all actives have a fitted effect of over 50% in size
Method in brief: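 Counter screen for cytotoxicity: VDR-bla cells at 2,000 cells/well, 16 h compound exposure, then CellTiter-Glo luminescence after the beta-lactamase measurement.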

[17] = qHTS assay to identify small molecule antagonists of the vitamin D receptor (VDR) signaling pathway - cell viability counter screen (AID 743225); conditions: VDR-bla HEK293T viability, CellTiter-Glo luminescence, 16 h; viability change, negative = cytotoxic: at 61 µM (top of the series) unless noted; further: nearly all actives have a fitted effect of over 50% in size
Method in brief: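 Parallel cytotoxicity test: VDR-UAS-bla HEK 293T, 3 nM (final) 1-alpha,25-dihydroxyvitamin D3 with test compound, 16 h, 37C. Endpoint is CellTiter-Glo luminescence in the same wells.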

[18] = qHTS assay to identify small molecule agonists of the endoplasmic reticulum stress response signaling pathway (AID 1159516; active means well fitted activation curve with a large enough effect in the signal ratio in the repeat runs, not every such curve was filed as active; inconclusive means weak or mixed curves, or effect the other way; the % refers to the signal ratio); conditions: ESRE-bla HeLa, ER stress beta-lactamase reporter, 5 h; activation: at 61 µM (top of the series) unless noted
Method in brief: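 For this screen, HeLa cells stably carrying beta-lactamase under the ER stress response element received test compounds, positive controls or DMSO for 5 hr at 37 C; B/G FRET substrate was then added and dual-wavelength emission recorded.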

[19] = target: Bile acid receptor (Homo sapiens) (UniProt Q96RI1); experiment: qHTS assay to identify small molecule agonists of the farnesoid-X-receptor (FXR) signaling pathway (AID 743220; active means well fitted activation curve with a large enough effect in the signal ratio in the repeat runs, not every such curve was filed as active; inconclusive means weak or mixed curves, or effect the other way; the % refers to the signal ratio; on activation: on the % scale 0 is the no-effect control and ±100 the full control effect); conditions: HEK293T FXR-UAS-bla, beta-lactamase FRET ratio, 16 h; activation: at 62.6 µM (top of the series) unless noted
Method in brief: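 FXR-UAS-bla HEK 293T cells carrying a UAS-driven beta-lactamase reporter were plated for 5 h at 37C/5% CO2, then exposed to DMSO-dissolved Tox21 10K compounds for 16 h at 37C. A LiveBLAzer B/G FRET substrate was loaded for 2 h at room temperature before fluorescence reading.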

[20] = activity change, negative = inhibition: at 61 µM (top of the series) unless noted
Potency means the concentration at half of the fitted maximal effect; tags describe the fitted curve by direction and shape or compound fluorescence and quenching.

CC1(c2ccc(Oc3ccccc3)cc2)OC(=O)N(Nc2ccccc2)C1=O (stereo not drawn)
inconclusive: Potency [1] 7.81 µM [partial curve] | Potency [6] 26.7 µM | activation [8] -5.68% [at 81.1 µM] | Potency [11] 55.3 µM [rising, single point] | Potency [13] 55.3 µM | Potency [14] 1.56 µM [rising, partial curve] | Potency [15, 20] 55.3 µM | Potency [18] 62 µM [single point]
active: Potency [2] 8.76 µM | Potency [3] 615 nM | Potency [4] 24.5 µM | Potency [5] 34.9 µM | Potency [7] 49.3 µM | Potency [9] 43.9 µM | Potency [10] 24.7 µM | Potency [12] 39.1 µM | Potency [16] 17.5 µM | Potency [17] 39.1 µM

CCCCCc1cc(O)cc(O)c1
inactive: activity change, negative = inhibition ([15]; at 78.8 µM (top of the series)) -11.8%
active: Potency [1] 24.7 µM | Potency [3] 48.8 µM and 48.6 µM
inconclusive: Potency [2] 6.17 µM [rising, full curve, poor fit] | Potency [8] 7.76 µM [rising, partial curve, poor fit] | activation [19] -0.99% | activation [14] -8.59% | activity change, negative = inhibition [15, 20] -32.3% | Potency [16] 61.7 µM [cytotoxic, single point] | Potency [17] 24.7 µM [cytotoxic, single point] and 61.7 µM [cytotoxic] | Potency [18] 24.5 µM [rising, single point]

CCOCn1c(-c2ccc(Cl)cc2)c(C#N)c(Br)c1C(F)(F)F
active: Potency [2] 1.95 µM | Potency [9] 30.9 µM | Potency [16] 3.47 µM | Potency [17] 4.9 µM
inconclusive: Potency [1] 24.5 µM [rising, partial curve] | Potency [3] 27300 nM [rising, partial curve] | Potency [4] 0.686 µM [cytotoxic, full curve] | Potency [5] 3.47 µM [cytotoxic, full curve] | Potency [6] 7.19 µM | Potency [8] 43.6 µM [partial curve] | Potency [10] 61.6 µM | Potency [11] 43.6 µM [rising, partial curve] | Potency [19] 24.5 µM [fluorescent, partial curve] | Potency [14] 27.5 µM [rising, partial curve] | Potency [15, 20] 49 µM | Potency [18] 21.9 µM [falling, full curve, poor fit]

COC(C)(C)CCC[C@H](C)C/C=C/C(C)=C/C(=O)OC(C)C
active: Potency [7] 38.9 µM
inconclusive: Potency [1] 34.7 µM | Potency [2] 54.9 µM [cytotoxic] | activation [3] 34.9% | Potency [4] 77 µM [cytotoxic, single point] | Potency [5] 49 µM [cytotoxic, single point] | Potency [12] 61.6 µM [cytotoxic, single point] | Potency [16] 49 µM [cytotoxic] | Potency [17] 19.5 µM [cytotoxic, full curve]
inactive: Potency [9] | Potency [18]

O=C1C(=O)c2cccc3cccc1c23
inconclusive: ratio activity, negative = inhibition [1] -30.3% | Potency [2] 54.9 µM [cytotoxic, partial curve, poor fit] | activation [3] 5.85% | Potency [5] 24.5 µM [cytotoxic, partial curve, poor fit] | Potency [6] 21.9 µM [falling, partial curve] | Potency [7] 19.5 µM [cytotoxic, partial curve] | Potency [16] 61.6 µM [cytotoxic, partial curve, poor fit] | Potency [18] 6.16 µM [falling, single point]

CCC(=O)Nc1ccc(Cl)c(Cl)c1
inconclusive: Potency [1] 50 µM [inhibitor, partial curve] | ratio activity, negative = inhibition [1] -25.2% | Potency [9] 1.1 µM [cytotoxic, full curve, poor fit]
inactive: Potency [18]
